# Test results reported in the antibiotic and cytotoxicity screens of Wong et al. (2023).
# The other results are listed elsewhere or left out.
# Test system: HSkMC (human skeletal muscle cells)
# Assay: cytotoxicity call (relative viability < 0.9)
# Details: 10 µM
row,SMILES,cytotoxicity call
1,CN1C(=O)c2cc(NC(=O)c3cnccn3)ccc2OC[C@H]2O[C@@H](CC(=O)N[C@H]3CCN(Cc4ccccc4)C3)CC[C@@H]21,inactive
2,C[C@@H]1CN([C@@H](C)CO)C(=O)c2cc(NS(=O)(=O)c3ccc(F)cc3)ccc2O[C@@H](C)CCCCO[C@@H]1CN(C)C(=O)Cc1ccccc1,inactive
3,CCNC(=O)[C@H]1[C@H](CO)[C@H]2Cn3c(ccc(-c4cccc(OC)c4)c3=O)[C@H]2N1S(C)(=O)=O,inactive
4,COc1nc(N)nc2c1ncn2[C@@H]1O[C@H](CO[P@@](=O)(N[C@@H](C)C(=O)OCC(C)(C)C)Oc2cccc3ccccc23)[C@@H](O)[C@@]1(C)O,inactive
5,CC(=O)Oc1ccn(C)c(=O)c1C#N,inactive
6,C[C@@H]1CN([C@@H](C)CO)C(=O)c2ccccc2-c2ccccc2CO[C@@H]1CN(C)Cc1cccc2c1OCCCO2,inactive
7,Cl.NC(CS)C(=O)O (stereo unspecified),inactive
8,C[C@@H]1CCCCO[C@@H](CN(C)Cc2ccccc2)[C@H](C)CN([C@H](C)CO)C(=O)c2cc(NC(=O)CCC(F)(F)F)ccc2O1,inactive
9,Oc1cccc(O)c1O,inactive
10,COc1ccc2c3c(n(c2c1)C)[C@@H](CO)N(C[C@]13CCN(CC1)C(=O)CN(C)C)S(=O)(=O)C,inactive
11,CNC(=O)N1C[C@H]2C[C@@H]3[C@@](C1)(CN(C)S3(=O)=O)O2,inactive
12,C[C@H](CO)N1C[C@H](C)[C@H](CN(C)Cc2ccccc2)OCCCC[C@H](C)Oc2ccc(NC(=O)c3ccccc3)cc2C1=O,inactive
13,C[C@@H]1CCCCO[C@H](CN(C)C(=O)Nc2ccc3c(c2)OCO3)[C@H](C)CN([C@@H](C)CO)C(=O)c2cc(NC(=O)Cc3ccccc3)ccc2O1,inactive
14,C[C@@H]1CCCCO[C@H](CN(C)S(=O)(=O)c2cn(C)cn2)[C@H](C)CN([C@@H](C)CO)C(=O)c2cc(NS(=O)(=O)c3ccc(F)cc3)ccc2O1,inactive
15,C[C@@H]1CN([C@@H](C)CO)C(=O)c2ccccc2-c2ccccc2CO[C@@H]1CN(C)C(=O)Nc1ccc(-c2ccccc2)cc1,inactive
16,C[C@@H]1CN([C@H](C)CO)C(=O)c2ccccc2-c2ccccc2CO[C@H]1CN(C)C(=O)Nc1ccc(F)cc1,inactive

row,SMILES,cytotoxicity call
1,C[C@@H]1CN([C@@H](C)CO)C(=O)c2cc(NC(=O)c3ccncc3)ccc2O[C@H]1CN(C)S(=O)(=O)c1ccc(F)cc1,inactive
2,COc1ccc(S(=O)(=O)N(C)C[C@H]2Oc3c(NS(=O)(=O)c4ccccc4)cccc3C(=O)N([C@H](C)CO)C[C@@H]2C)cc1,inactive
3,COC(=O)c1c(C)c2c(c(C)c1O)OC(=O)c1c(C)c(Cl)c(O)c(Cl)c1O2,inactive
4,CCc1c(C)[nH]c(N2CCOCC2)nc1=O,inactive
5,COCC(=O)Nc1ccc2c(c1)C(=O)N(C)C[C@@H](OC)[C@@H](C)CN(C(=O)c1ccccc1F)[C@@H](C)CO2,inactive
6,NNC(=O)CS(=O)(=O)c1ccc(Cl)cc1,inactive
7,O=C1OCC=C[C@H]2O[C@@]34C=CCN(c5ccc6ccccc6c5)C(=O)[C@H]3N(CCCCCCO)C(=O)[C@@H]4[C@@H]12,inactive
8,COc1ccc(S(=O)(=O)N(C)C[C@H]2Oc3ccc(NC(=O)NC(C)C)cc3C(=O)N([C@@H](C)CO)C[C@H]2C)cc1,inactive
9,C[C@@H]1CCCCO[C@H](CN(C)S(=O)(=O)c2ccc(Cl)cc2)[C@@H](C)CN([C@H](C)CO)C(=O)c2cc(NS(=O)(=O)c3cccs3)ccc2O1,inactive
10,C[C@@H]1CN([C@@H](C)CO)S(=O)(=O)c2ccc(-c3cccc(C#N)c3)cc2O[C@@H]1CN(C)C(=O)c1cccnc1,inactive
11,COCC#Cc1cnc2c(c1)C(=O)N([C@@H](C)CO)C[C@H](C)[C@H](CN(C)C(=O)c1ccc3c(c1)OCO3)O2,inactive
12,COc1ccc(S(=O)(=O)Nc2ccc3c(c2)C(=O)N([C@H](C)CO)C[C@H](C)[C@@H](CN(C)Cc2ccc(Cl)c(Cl)c2)OCCCC[C@@H](C)O3)cc1,inactive
13,CCC(=O)N1C[C@]2(C1)CN([C@@H](CO)c1c2c2ccc(cc2n1C)OC)S(=O)(=O)C,inactive
14,COc1ccc(S(=O)(=O)N(C)C[C@@H]2Oc3ccc(NS(C)(=O)=O)cc3CC(=O)N([C@@H](C)CO)C[C@H]2C)cc1,inactive
15,C[C@@H]1CN([C@H](C)CO)S(=O)(=O)c2ccc(C#CC3(O)CCCC3)cc2O[C@@H]1CN(C)C(=O)Cc1ccccc1,inactive
